In PubChem BioAssay AID1460 (National Center for Advancing Translational Sciences (NCATS), 2008):
The whole screen tested about 270,000 compounds, of which about 5,800 (2.1%) were called active. Inconclusive results, whose numbers are uncertain, are shown with a selection of clear calls. Calls come from the whole dose curve; as a rule, active = well fitted inhibition curve with a large enough effect; inconclusive = small, poorly fitted or top-dose-only effect; inactive = flat fitted curve, though single readings scatter. A potency beside an inconclusive call is a rough fit, not a confirmed value.

Biological target: Microtubule-associated protein tau (Homo sapiens) (UniProt P10636)
Sequence of UniProt P10636 (P10636 whole entry, looked up): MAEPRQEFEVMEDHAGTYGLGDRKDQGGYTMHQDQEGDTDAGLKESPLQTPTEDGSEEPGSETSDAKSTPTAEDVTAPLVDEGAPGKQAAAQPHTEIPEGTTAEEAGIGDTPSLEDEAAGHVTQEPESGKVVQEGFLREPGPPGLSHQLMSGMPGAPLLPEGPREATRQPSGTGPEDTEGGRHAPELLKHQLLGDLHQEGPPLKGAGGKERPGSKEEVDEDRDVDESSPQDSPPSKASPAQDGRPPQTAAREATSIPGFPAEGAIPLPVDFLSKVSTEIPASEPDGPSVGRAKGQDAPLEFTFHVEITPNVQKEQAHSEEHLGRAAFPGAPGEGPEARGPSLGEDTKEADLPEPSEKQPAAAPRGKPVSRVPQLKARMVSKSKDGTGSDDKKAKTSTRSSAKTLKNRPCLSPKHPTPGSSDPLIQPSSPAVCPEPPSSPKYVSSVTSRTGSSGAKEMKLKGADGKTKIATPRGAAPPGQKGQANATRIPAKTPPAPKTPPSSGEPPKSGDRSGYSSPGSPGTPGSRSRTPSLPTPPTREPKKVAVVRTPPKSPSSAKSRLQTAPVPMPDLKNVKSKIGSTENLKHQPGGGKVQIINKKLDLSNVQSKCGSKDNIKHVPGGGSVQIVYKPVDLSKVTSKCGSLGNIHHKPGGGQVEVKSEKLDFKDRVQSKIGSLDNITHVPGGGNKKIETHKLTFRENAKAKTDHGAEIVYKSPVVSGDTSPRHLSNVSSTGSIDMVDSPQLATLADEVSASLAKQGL
Assay: qHTS for Inhibitors of Tau Fibril Formation, Thioflavin T Binding; note: nearly all actives have a fitted effect of over 55% in size
Settings: recombinant tau K18 P301L (four-repeat tau fragment), heparin-induced fibrillization, ThT fluorescence; series mostly up to 57.4 µM
How it was run: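 Heparin-induced (20 uM) aggregation of recombinant human K18 P301L tau, 15 uM unlabeled with 0.24 uM labeled, pH 7 acetate buffer, 6 hr at 37 C with compound. Fibrils quantified by 30 uM ThT fluorescence after 1 hr ambient incubation.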
Potency is the fitted concentration of half-maximal effect; tags give direction and shape of the fitted curve.

Row | Compound | Potency
1 | COc1ccc(C(=O)/C=C/c2ccc(OC)c(Cn3nnc4ccccc43)c2)cc1 | inconclusive: 20 µM [inhibitor, partial curve]
2 | O=C(CSc1nc(=O)[nH]c2c1CCCC2)NCc1ccccc1Cl | inactive
3 | Nc1cc(Cl)ccc1Oc1ccccc1 | inactive
4 | O=C(O)CCNc1ccc2c(c1)OCCO2 | inconclusive: 35.5 µM [inhibitor, single point]
5 | CC(C)c1ccc(Nc2nnc(SCC(=O)c3nnc(-c4ccccc4)o3)s2)cc1 | active: 17.8 µM
6 | CCN(CC)c1ccc(/C=C2\CCC(/C=N/NC(=O)c3ccc(=O)n(C)c3)=C2N2CCOCC2)cc1 | inconclusive: 7.94 µM [inhibitor, partial curve]
7 | O=C(O)c1ccc(-n2ncc3c2/C(=C/c2cccc([N+](=O)[O-])c2)CC3)cc1 | inconclusive: 2.82 µM [inhibitor, partial curve]
8 | O=C(Cc1ccccc1)NNC(=O)c1ccccc1C(=O)O | inactive
9 | COc1ccc(/C=C2\CN(Cc3ccccc3)C/C(=C\c3ccc(OC)cc3)C2=O)cc1 | inconclusive: 14.1 µM [inhibitor, partial curve]
10 | COc1ccc(N2CCN(C(=O)C3CCCN(C(=O)c4cc5sccc5n4C)C3)CC2)cc1 (stereo not given) | inconclusive: 35.5 µM [inhibitor, single point]
11 | C/C(=N\Nc1ccc(S(=O)(=O)Nc2ccccc2)cc1[N+](=O)[O-])c1ccncc1 | inconclusive: 3.55 µM [inhibitor, full curve]
12 | NC(=NCCCCCCN=C(N)/N=C(\N)Nc1ccc(Cl)cc1)/N=C(\N)Nc1ccc(Cl)cc1 | inconclusive: 22.4 µM [activator, single point]
13 | CC(=O)N1c2ccc(S(=O)(=O)NCc3ccccc3Cl)cc2CC1C (stereo not given) | inactive
14 | Cc1cc(C)n2nc(N)c(N=Nc3ccc(Cl)cc3)c2n1 | inconclusive: 14.1 µM [inhibitor, partial curve]
15 | COc1ccc(-c2oc3ccccc3c(=O)c2OC(C)=O)cc1 | inconclusive: 11.2 µM [inhibitor, partial curve]
16 | CCCCNC(=O)c1c(-c2ccccc2)c(-c2ccccc2)nn(C)c1=O | inactive
17 | CC(C)(C)C(=O)OCc1nc(-c2ccc(O)c(O)c2)cs1 | inconclusive: 31.6 µM [inhibitor, partial curve, poor fit]
18 | N#C/C(=C\c1ccncc1)c1nc2c(s1)CCCC2 | inconclusive: 4.47 µM [inhibitor, partial curve]
19 | CC(=C/c1ccccc1)/C=N/NC(=O)c1cc(C)oc1C | inconclusive: 14.1 µM [inhibitor, partial curve]
20 | CN(C)c1ccc(/C=C/C=N/Nc2nc(N3CCOCC3)nc(N3CCOCC3)n2)cc1 | inconclusive: 3.16 µM [inhibitor, partial curve]
21 | Cc1ccc(Nc2nc(-c3ccc(C)cc3)c(CC(=O)O)s2)cc1 | inconclusive: 14.1 µM [inhibitor, partial curve]
22 | CSc1nncc(/C(C)=N\Nc2cccc(C)c2)n1 | inconclusive: 0.562 µM [inhibitor, full curve]
23 | COc1ccc2c(c1)c(C(=O)CNc1nc(C)cs1)c(C)n2C | inconclusive: 28.2 µM [inhibitor, single point]

Row | Compound | Potency
24 | COCCn1c(N2CCN(c3ccc(OC)cc3)CC2)nc2c1c(=O)[nH]c(=O)n2C | inconclusive: 31.6 µM [inhibitor, single point]
25 | Cc1c(C)n(Cc2ccccc2)c2ccc(C(=O)N3CCN(c4ccc(F)cc4)CC3)cc12 | inactive
26 | CCN(Cc1ccccc1)C(=O)c1cc(-c2ccccc2)n[nH]1 | inactive
27 | Cc1cccc(NC(=O)CCC(=O)Nc2nnc(C(F)(F)F)s2)c1 | inactive
28 | O=C(O)CCN1C(=O)/C(=C\c2cccc(OCC(=O)Nc3ccc(Cl)cc3)c2)SC1=S | active: 12.6 µM
29 | Cc1ccc(Cn2c(C)nc3c(c2=O)c2nc4ccccc4nc2n3Cc2ccco2)cc1 | inconclusive: 39.8 µM [inhibitor, single point]
30 | CC(C)(C)C(=O)N1CCc2cc(-c3csc(N)n3)ccc21 | inconclusive: 17.8 µM [inhibitor, partial curve]
31 | CCCCC(=O)Nc1ccc2c3c(cccc13)C(=O)N2CC | inconclusive: 35.5 µM [inhibitor, single point]
32 | O=C(Nc1cccc(Cl)c1Cl)c1ccc2c(c1)N(Cc1cccc(Cl)c1)C(=O)c1ccccc1S2=O (stereo not given) | inactive
33 | COc1ccc(N2CCN(c3ccc(-c4nc(-c5ccccc5)no4)cc3[N+](=O)[O-])CC2)cc1 | inactive
34 | CCn1c2ccccc2c2cc(CN3CCN(Cc4cc(OC)c(O)c(OC)c4)CC3)ccc21 | inconclusive: 10 µM [inhibitor, partial curve]
35 | Oc1[nH]c2c(Cl)cc(Cl)cc2c1N=NC(=S)NCC1CCCO1 (stereo not given) | inconclusive: 15.8 µM [inhibitor, partial curve]
36 | Cn1cnnc1SCC(=O)c1ccco1 | inconclusive: 31.6 µM [inhibitor, single point]
37 | CC(C)(C)OC(=O)N1CCc2nc(N3CCN(c4ncccn4)CC3)ncc2C1 | inconclusive: 15.8 µM [inhibitor, partial curve]
38 | CCS(=O)(=O)N1CCc2cc(C(=O)N3CCN(c4ccccc4OC)CC3)ccc21 | inconclusive: 3.16 µM [inhibitor, full curve, poor fit]
39 | Cc1cc(C(=O)c2ccc(Cl)cc2)c(NC(=O)CCl)s1 | inconclusive: 7.94 µM [inhibitor, full curve]
40 | Cc1cnc(NC(=O)CSc2nc3ccccc3c(=O)[nH]2)s1 | inactive
41 | O=c1[nH]c(SCc2ccc(F)cc2Cl)nc2ccccc12 | inactive
42 | O=C(Nc1ccc(O)c(-c2nc3ccccc3s2)c1)c1cccs1 | inactive
43 | C=CCNC(=O)/C(C#N)=C/c1cc(Br)ccc1OC | inconclusive: 44.7 µM [inhibitor, single point]
44 | CC(=O)Nc1ccc(NC(=O)CSC2=NCCS2)cc1 | inconclusive: 28.2 µM [inhibitor, single point]
45 | Cc1nn(-c2ccccc2)c(C)c1/C=N/N1CCN(c2ccccc2)CC1 | inconclusive: 2.82 µM [inhibitor, full curve]
